Consider 54 molecules from PubChem BioAssay AID1346428 (National Center for Advancing Translational Sciences (NCATS), 2018).

“And” between values parts separate entries of the source, which are not always exact repeats. Equal entries are not always repeated. Out of some 48,000 compounds screened, about 1,200 (2.5%) were called active. Another 2% or so got no clear call; they are omitted.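 Rule for the calls: active = activation of at least 60% and not above a set upper limit (about 1 call in 100 departs from these limits); inconclusive = activation of 40% to 60%, or above that upper limit; inactive = activation under 40%.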 Some of the results follow.

Chain of UniProt O75388 (O75388 whole entry, looked up): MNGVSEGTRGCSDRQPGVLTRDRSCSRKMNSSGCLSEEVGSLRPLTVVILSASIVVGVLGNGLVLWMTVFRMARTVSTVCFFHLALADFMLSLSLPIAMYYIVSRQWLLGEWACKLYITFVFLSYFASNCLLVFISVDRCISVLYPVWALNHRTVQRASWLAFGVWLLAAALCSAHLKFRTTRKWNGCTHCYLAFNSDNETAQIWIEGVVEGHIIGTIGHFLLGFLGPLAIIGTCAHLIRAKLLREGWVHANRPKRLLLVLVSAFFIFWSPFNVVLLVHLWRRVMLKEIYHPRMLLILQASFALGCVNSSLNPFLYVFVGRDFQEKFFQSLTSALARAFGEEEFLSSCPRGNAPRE

This experiment concerns the target Probable G-protein coupled receptor 32 (Homo sapiens) (UniProt O75388). The experiment is described as follows: qHTS for Agonists of Human Resolvin D1 Receptor DRV1. Note: 0% is about no effect. To be noted: CHO-K1 GPR32 beta-arrestin PathHunter luminescence, 90 min; at 76.9 µM; active compounds read high; zero percent set by DMSO-only wells. A digest of the protocol:
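Engineered CHO-K1 line co-expressing GPR32-ProLink and EA-beta-arrestin. Compound treatment lasted 90 min at 37 °C. Luminescence was recorded after 1 h with substrate at ambient temperature, relative to DMSO basal wells.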
(In general: qHTS replaces the single test concentration by a dilution series.)
For the molecule `CCOc1ccc(CNC(=O)c2ccc3c(c2)N(Cc2ccccc2)CCS3)cc1`, the activation is inactive: -23.9%.

Regarding `COC(=O)c1ccc2c(c1)N(Cc1cc(C)ccc1C)C(=O)c1ccccc1S2(=O)=O`, the activation was inactive: -12.5%.

Take `O=C(Cn1ncc2c(Cl)cccc21)NCc1cccc(F)c1`: the activation is inactive: -7.68%.

For `CCOc1ccc(S(=O)(=O)N2CCC(n3c(C)nc4cccnc43)CC2)cc1`, the activation was active: 75.6%.

For `Cc1cc(C)c(NC(=O)Cn2nnc(-c3nc(-c4ccncc4)no3)c2N)c(C)c1`, the activation was inactive: -5.21%.

With `Cc1cccc(-c2nnn3c2nc(NCCC(C)C)c2ccccc23)c1`, the activation was inactive: -5.38%.

For `CCOc1ccc(C2c3c(oc4ccccc4c3=O)C(=O)N2Cc2ccc3c(c2)OCO3)cc1` (centres undefined), the activation is inactive: 8.4%.

For `Cc1ccc(Nc2c(-c3ccc(N4CCOCC4)cc3)nc3ccc(Cl)cn23)cc1`, the activation is inactive: -1.72%.

As to `Cc1cc2c(cc1S(=O)(=O)N1CCC(C(N)=O)CC1)OCC(=O)N2`, the activation was inactive: 6.36%.

In the case of `COc1cn(CC(=O)Nc2ccc(C)cc2C)c(CN2CCCCC2)cc1=O`, the activation was inactive: -7.72%.

On to `COc1cccc(C(=O)Nc2ccc(-c3nc4ccc(C)cc4s3)cc2)c1OC`, for which the activation is inactive: -1.3%.

On to `O=C(CSc1nc2c([nH]c3ccccc32)c(=O)n1-c1cccc(C(F)(F)F)c1)N1CCCC1`, for which the activation was inactive: -5.82%.

With `CCOC(=O)c1cccc(NC(=O)C2(S(=O)(=O)c3ccc(C)cc3)CC2)c1`, the activation was inactive: -0.321%.

On to `CCCNC(=O)C1CCC(Cn2c(=O)c3sccc3n(CC(=O)N3CCCC(C)C3)c2=O)CC1` (centres undefined), for which the activation is inactive: 3.65%.

On to `CCOc1cccc(C2c3c(oc4ccc(F)cc4c3=O)C(=O)N2CCOC)c1` (centres undefined), for which the activation was inactive: -2.3%.

For `COc1ccc(S(=O)(=O)NCC(c2ccc(N(C)C)cc2)N2CCCC2)cc1F` (centres undefined), the activation is inactive: -12.4%.

With `CC(=O)C1=C(c2ccc(C)cc2)N(C(C)=O)n2c(nnc2-c2ccccc2)S1`, the activation is inactive: -25.1%.

For `Cc1cccc(OCC(=O)NCC2(N3CCN(C)CC3)CCCCC2)c1`, the activation is inactive: -14.3%.

For `Cc1ccccc1Cn1cc(NC(=O)c2cc(-c3ccc(Cl)cc3)on2)cn1`, the activation was inactive: -2.58%.

With `Cc1ccc(Cl)cc1N1CCN(S(=O)(=O)c2ccc3oc(=O)c4ncn(C)c4c3c2)CC1`, the activation was inactive: -4.59%.

`CCc1ccc(OCC(=O)Nc2ccc(Cl)c(-c3nc4cc(C)cc(C)c4o3)c2)cc1`: the activation is inactive: -4.76%.

Take `Cc1cccc(NC(=O)CN2C(=O)COc3ccc(S(=O)(=O)Nc4ccccc4)cc32)c1C`: the activation is inactive: 32.8%.

Turning to `Cc1[nH]c2ccc(C(=O)NCCc3ccccc3Cl)cc2c1C`, the activation is inactive: -2.54%.

Take `Cc1ccc(S(=O)(=O)c2nnn3c2nc(NCc2ccc(F)cc2)c2sccc23)cc1C`: the activation was inactive: -19.8%.

For the molecule `CC(C)OCCCn1c(=O)c2ccccc2n2c(-c3ccc(F)c(F)c3)nnc12`, the activation was inactive: -33.7%.

Turning to `CCCS(=O)(=O)N1CC(=O)N(c2ccccc2C)C(C)(C(=O)NC2CCCCC2)C1` (centres undefined), the activation was inactive: -0.428%.

Consider `Cc1nn(-c2ccc(N3CCCC3)nn2)c(C)c1CCC(=O)NCc1ccc(F)cc1`, for which the activation is inactive: -9.74%.

Take `CCC1CN(C(=O)N2CCC(C(=O)NCc3ccc(C)o3)CC2)c2ccccc2O1` (centres undefined): the activation was inactive: -5.7%.

Regarding `COc1ccccc1OCCn1c(NC(=O)c2ccccc2)nc2ccccc21`, the activation was inactive: -14.6%.

In the case of `Cc1ccc(NC(=O)C2CCN(c3ncccn3)CC2)cc1F`, the activation is inactive: -8.22%.

As to `O=C(O)CNC(=O)CNC(=O)CNC(=O)CSC(=O)c1ccccc1`, the activation was inactive: -1.76%.

Take `CC1(C)S[C@@H]2[C@H](N=CN3CCCCCC3)C(=O)N2[C@H]1C(=O)O`: the activation was inactive: -19.4%.

As to `CCOc1ccccc1NC(=O)C(C)n1nnc2sc3c(c2c1=O)CCCC3` (centres undefined), the activation was inactive: -7.78%.

Regarding `COc1ccc(NC(=O)CSc2nc3ccccc3n2CC(=O)Nc2cccc(C)c2C)cc1`, the activation was inactive: -18.6%.

For the molecule `CCc1cc2cc(OC)c(OC)cc2c(Cc2ccccc2)n1`, the activation was inactive: 39.3%.

Turning to `CCn1c(CNC(=O)C23CC4CC(CC(C4)C2)C3)nnc1SCC(=O)Nc1ccc(OC)cc1`, the activation was inactive: 6.37%.

As to `O=C(COc1cccc(Cl)c1)N1CCC(c2nc3ccccc3s2)CC1`, the activation was active: 71.6%.

In the case of `Cc1ccc(CCNC(=O)c2ccc(Cn3c(=O)c4cccn4c4cccnc43)cc2)cc1`, the activation was inactive: -20.2%.

In the case of `Cc1ccc(-n2c(SCC(N)=O)nc3c(oc4ccccc43)c2=O)cc1`, the activation is inactive: -4.73%.

As to `COc1cc(OC)c(NC(=O)Nc2sc3nc4n(c(=O)c3c2C)CCC(C)CC4)cc1Cl` (centres undefined), the activation was inactive: 10.5%.

For the molecule `O=S(=O)(Nc1ccc(-c2ccc(N3CCCC3)nn2)cc1)c1ccccc1Cl`, the activation was inactive: 7.61%.

Turning to `O=C(O)c1cccc(NC(=O)c2cccc(S(=O)(=O)Nc3cccc(F)c3)c2)c1`, the activation is inactive: -6.5%.

`Cc1cc(C)cc(NC(=O)c2cc(S(=O)(=O)N3CCOCC3)cn2C)c1`: the activation was inactive: -15%.

On to `COc1cccc(C(=O)Nc2ccccc2SCc2cc(=O)c3cccc(C)c3[nH]2)c1`, for which the activation is inactive: 13.2%.

Consider `Cc1ccc(N2CCN(c3nc4ccccc4n4nnnc34)CC2)c(C)c1`, for which the activation is inactive: -8.23%.

On to `N#Cc1c[nH]n2c(NC3CCCC3)c(-c3ccc(Br)cc3)nc12`, for which the activation is inactive: -2.6%.

As to `Cc1ccc(Cl)cc1N1CCN(C(=O)c2cnn(-c3ccc(Cl)cc3)c2C2CCNCC2)CC1`, the activation is inactive: -15.8%.

As for `CCc1nn2c(=O)cc(COC(=O)c3cccs3)nc2s1`, the activation was inactive: 15.1%.

As for `CCOc1ccccc1CNC(=O)c1ccc2nc(CCc3ccccc3)oc2c1`, the activation is inactive: -5.76%.

Take `N#Cc1nc(/C=C/c2ccc(F)cc2)oc1N1CCCCC1`: the activation is inactive: 4.74%.

As to `CC(Oc1ccccc1)C(=O)Nc1ccc(C(=O)OCc2cc(=O)n3ccsc3n2)cc1` (centres undefined), the activation was inactive: 6.82%.

For `Cc1cccc(C(=O)NCC(=O)OCc2cc(=O)n3nc(C)sc3n2)c1`, the activation was inactive: -9.44%.

In the case of `COC(=O)c1ccc(CN(Cc2ccc(OC)c(OC)c2)S(=O)(=O)c2ccc(F)c(C(=O)Nc3cc(C)ccc3C)c2)cc1`, the activation is inactive: -12.1%.

With `C[C@]12CCC(=O)C=C1CC[C@@H]1[C@@H]2C(=O)C[C@@]2(C)[C@H]1CC[C@]2(O)C(=O)CO`, the activation was inactive: -16.2% and inactive: -13.6%.
